Data: patent publication US11207320B2, “Compositions and methods for cancer expressing PDE3A or SLFN12” (The Broad Institute, Inc., priority 2015, dated 2021)
Further values from the same series stand in other lists.

System: 766 cancer cell lines
Test: Large-scale cell-line viability measurements (766 cancer cell lines, 72 h, AUC)
Assay type: cell-based, human
Description: Cell lines were treated for 72 hours with concentrations ranging from 66.4 μM-2 nM in 2-fold step dilutions.
To characterize cellular sensitivity to DNMDP further, 766 genomically characterized cancer cell lines were screened for DMNDP sensitivity at concentrations ranging from 66.4 μM to 2 nM in 2-fold dilution steps for 72 hours. From these cell lines, 22 cell lines were categorized as sensitive with a robust Z-score lower than −4, which represented multiple lineages including multiple melanoma cell lines, amongst others (Table 1).
The sensitivity of […] cancer cell lines (CCLs) was measured drawn from 23 different lineages to DNMDP. Each cell line was plated in its preferred media in white opaque 1536-plates at a density of 500 cells/well. After incubating overnight, DNMDP was added by acoustic transfer at 16 concentrations ranging from 66.4 μM-2 nM in 2-fold steps in duplicate (Labcyte Echo 555, Labcyte Inc., Sunnyvale, Calif.). After 72 hours treatment, cellular ATP levels were measured as a surrogate for viability (CELLTITERGLO®, Promega Corporation, Madison, Wis.) according to manufacturer's protocols using a ViewLux Microplate Imager (PerkinElmer, Waltham, Mass.) and normalized to background (media-only) and vehicle (DMSO)-treated control wells.
Concentration response curves were fit using nonlinear fits to 2- or 3-parameter sigmoid functions through all 16 concentrations with the low-concentration asymptote set to the DMSO-normalized value, and an optimal 8-point dose curve spanning the range of compound-sensitivity was identified. The area under the 8-point dose curve (AUC) was computed by numeric integration as a metric for sensitivity for further analysis. Similar sensitivity measurements have been obtained for a collection of 480 other compounds, enabling analyses that identify cell lines responding uniquely to DNMDP (see Broad Institute Cancer Therapeutics Response Portal, a dataset to identify comprehensively relationships between genetic and lineage features of human cancer cell lines and small-molecule sensitivities for complete list of compounds).

[1] = cell line NUGC4, STOMACH, 72 hours
[2] = cell line OAW42, OVARY, 72 hours
[3] = cell line OCIAML3 (HAEMATOPOIETIC AND LYMPHOID TISSUE)
[4] = cell line OCIM1, HAEMATOPOIETIC AND LYMPHOID TISSUE, 72 hours
[5] = cell line OV56, OVARY, 72 hours
[6] = cell line P3HR1, HAEMATOPOIETIC AND LYMPHOID TISSUE, 72 hours
[7] = cell line P12ICHIKAWA (HAEMATOPOIETIC AND LYMPHOID TISSUE)
[8] = cell line PECAPJ49 (UPPER AERODIGESTIVE TRACT)
[9] = cell line PFEIFFER (HAEMATOPOIETIC AND LYMPHOID TISSUE)
[10] = cell line RAJI (HAEMATOPOIETIC AND LYMPHOID TISSUE)
[11] = cell line RCHACV (HAEMATOPOIETIC AND LYMPHOID TISSUE)
[12] = cell line RCM1 (LARGE INTESTINE)
[13] = cell line RI1, HAEMATOPOIETIC AND LYMPHOID TISSUE, 72 hours
[14] = cell line RL952, ENDOMETRIUM, 72 hours

CCN(CC)c1ccc(C2=NNC(=O)CC2C)cc1[N+](=O)[O-] (centres unmarked) [DNMDP, 6-(4-(diethylamino)-3-nitrophenyl)-5-methyl-4,5-dihydropyridazin-3(2H)-one]
Robust Z-score (cell line NUGC3 (STOMACH)): 0.3338
DNMDP AUC [1]: 7.2991
Robust Z-score [1]: 0.6974
DNMDP AUC [2]: 7.1038
Robust Z-score [2]: 0.4924
DNMDP AUC (cell line OC314 (OVARY)): 7.0273
Robust Z-score (cell line OC314 (OVARY)): 0.4121
DNMDP AUC [3]: 6.7152
Robust Z-score [3]: 0.08455
DNMDP AUC [4]: 7.1253
Robust Z-score [4]: 0.515
DNMDP AUC (cell line OE19 (OESOPHAGUS)): 6.7273
Robust Z-score (cell line OE19 (OESOPHAGUS)): 0.09725
DNMDP AUC (cell line OE33 (OESOPHAGUS)): 6.5749
Robust Z-score (cell line OE33 (OESOPHAGUS)): −0.06272
DNMDP AUC (cell line OV7 (OVARY)): 6.7346
Robust Z-score (cell line OV7 (OVARY)): 0.1049
DNMDP AUC [5]: 7.2957
Robust Z-score [5]: 0.6939
DNMDP AUC (cell line OV90 (OVARY)): 6.7381
Robust Z-score (cell line OV90 (OVARY)): 0.1086
DNMDP AUC (cell line OVCAR4 (OVARY)): 6.5755
Robust Z-score (cell line OVCAR4 (OVARY)): −0.06209
DNMDP AUC (cell line OVCAR8 (OVARY)): 6.8637
Robust Z-score (cell line OVCAR8 (OVARY)): 0.2404
DNMDP AUC (cell line OVISE (OVARY)): 6.6514
Robust Z-score (cell line OVISE (OVARY)): 0.01758
DNMDP AUC (cell line OVK18 (OVARY)): 6.9579
Robust Z-score (cell line OVK18 (OVARY)): 0.3393
DNMDP AUC (cell line OVKATE (OVARY)): 6.8742
Robust Z-score (cell line OVKATE (OVARY)): 0.2514
DNMDP AUC (cell line OVSAHO (OVARY)): 6.7028
Robust Z-score (cell line OVSAHO (OVARY)): 0.07153
DNMDP AUC [6]: 7.2973
Robust Z-score [6]: 0.6955
DNMDP AUC [7]: 6.8951
Robust Z-score [7]: 0.2734
DNMDP AUC (cell line PANC1 (PANCREAS)): 7.0096
Robust Z-score (cell line PANC1 (PANCREAS)): 0.3936
DNMDP AUC (cell line PANC0203 (PANCREAS)): 7.0662
Robust Z-score (cell line PANC0203 (PANCREAS)): 0.453
DNMDP AUC (cell line PANC0403 (PANCREAS)): 6.5578
Robust Z-score (cell line PANC0403 (PANCREAS)): −0.08067
DNMDP AUC (cell line PANC0813 (PANCREAS)): 6.751
Robust Z-score (cell line PANC0813 (PANCREAS)): 0.1221
DNMDP AUC (cell line PATU8902 (PANCREAS)): 6.9874
Robust Z-score (cell line PATU8902 (PANCREAS)): 0.3703
DNMDP AUC (cell line PATU8988T (PANCREAS)): 6.8099
Robust Z-score (cell line PATU8988T (PANCREAS)): 0.184
DNMDP AUC (cell line PC3 (PROSTATE)): 6.9226
Robust Z-score (cell line PC3 (PROSTATE)): 0.3022
DNMDP AUC [8]: 6.7927
Robust Z-score [8]: 0.1659
DNMDP AUC [9]: 6.6804
Robust Z-score [9]: 0.04802
DNMDP AUC (cell line PK1 (PANCREAS)): 6.6156
Robust Z-score (cell line PK1 (PANCREAS)): −0.02
DNMDP AUC (cell line PK45H (PANCREAS)): 6.5666
Robust Z-score (cell line PK45H (PANCREAS)): −0.07143
DNMDP AUC (cell line PK59 (PANCREAS)): 6.7163
Robust Z-score (cell line PK59 (PANCREAS)): 0.0857
DNMDP AUC (cell line PLCPRF5 (LIVER)): 6.584
Robust Z-score (cell line PLCPRF5 (LIVER)): −0.05316
DNMDP AUC (cell line PSN1 (PANCREAS)): 6.6403
Robust Z-score (cell line PSN1 (PANCREAS)): 0.005931
DNMDP AUC (cell line QGP1 (PANCREAS)): 6.9517
Robust Z-score (cell line QGP1 (PANCREAS)): 0.3328
DNMDP AUC [10]: 7.0524
Robust Z-score [10]: 0.4385
DNMDP AUC (cell line RCC10RGB (KIDNEY)): 6.9009
Robust Z-score (cell line RCC10RGB (KIDNEY)): 0.2795
DNMDP AUC [11]: 6.6426
Robust Z-score [11]: 0.008345
DNMDP AUC [12]: 6.8231
Robust Z-score [12]: 0.1978
DNMDP AUC (cell line RERFLCMS (LUNG)): 6.6512
Robust Z-score (cell line RERFLCMS (LUNG)): 0.01737
DNMDP AUC (cell line RH41 (SOFT TISSUE)): 7.0285
Robust Z-score (cell line RH41 (SOFT TISSUE)): 0.4134
DNMDP AUC [13]: 7.5915
Robust Z-score [13]: 1.004
DNMDP AUC [14]: 7.1432
Robust Z-score [14]: 0.5338
